Molecules are shown by their SMILES. About 14,000 (4.5%) of roughly 310,000 compounds showed an effect of 50% or more. Effects have a minus sign here. The list shows a part of the results.
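Further: peak tail current of the secondary pulse compared with the same well before compound.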

This experiment deals with human ether-à-go-go-related gene (hERG) potassium channel (human, UniProt Q12809). Description: primary screen, population patch clamp on CHO cells stably expressing hERG.
Sequence of human ether-à-go-go-related gene (hERG) potassium channel (Q12809 whole entry, looked up): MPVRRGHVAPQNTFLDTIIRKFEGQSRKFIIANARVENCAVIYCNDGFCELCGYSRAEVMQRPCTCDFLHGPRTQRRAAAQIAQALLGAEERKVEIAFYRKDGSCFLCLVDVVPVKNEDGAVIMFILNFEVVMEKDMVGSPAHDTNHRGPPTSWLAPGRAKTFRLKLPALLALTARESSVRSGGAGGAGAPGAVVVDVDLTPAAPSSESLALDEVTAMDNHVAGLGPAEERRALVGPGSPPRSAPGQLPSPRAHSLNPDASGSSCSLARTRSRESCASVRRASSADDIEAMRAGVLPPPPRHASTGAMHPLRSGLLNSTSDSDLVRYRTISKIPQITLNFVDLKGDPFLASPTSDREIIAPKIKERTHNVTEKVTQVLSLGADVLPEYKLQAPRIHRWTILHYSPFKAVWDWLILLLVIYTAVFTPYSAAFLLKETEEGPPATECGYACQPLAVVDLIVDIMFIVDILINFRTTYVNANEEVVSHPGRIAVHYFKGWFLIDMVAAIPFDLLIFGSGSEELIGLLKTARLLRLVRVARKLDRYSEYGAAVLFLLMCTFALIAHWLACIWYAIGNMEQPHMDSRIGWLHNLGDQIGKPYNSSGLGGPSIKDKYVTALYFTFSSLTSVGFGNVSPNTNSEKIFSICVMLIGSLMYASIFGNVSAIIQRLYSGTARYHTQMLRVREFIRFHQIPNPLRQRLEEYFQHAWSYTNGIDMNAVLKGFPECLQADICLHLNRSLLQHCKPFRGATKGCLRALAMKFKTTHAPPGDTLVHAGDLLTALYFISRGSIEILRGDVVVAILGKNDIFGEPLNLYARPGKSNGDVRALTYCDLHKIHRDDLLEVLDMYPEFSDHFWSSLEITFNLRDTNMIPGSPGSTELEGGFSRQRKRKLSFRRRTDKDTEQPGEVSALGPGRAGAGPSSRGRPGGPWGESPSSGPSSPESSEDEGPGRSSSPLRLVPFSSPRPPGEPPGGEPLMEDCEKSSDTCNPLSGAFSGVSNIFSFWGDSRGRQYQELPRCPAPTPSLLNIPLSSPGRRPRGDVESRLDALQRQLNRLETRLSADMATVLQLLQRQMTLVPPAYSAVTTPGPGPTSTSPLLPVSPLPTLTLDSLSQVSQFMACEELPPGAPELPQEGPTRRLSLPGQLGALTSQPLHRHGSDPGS
On to `CC(=O)c1cccc(N=Cc2c(O)ccc3ccccc23)c1`, for which the “hERG current change (%, negative = inhibition) at 10uM” value is on record as -2.52%.

With `COc1cccc(NC(=O)c2ccccc2F)c1`, the “hERG current change (%, negative = inhibition) at 10uM” value is reported as -15.5%.

For the compound `OCCN1CCOCCN(CCO)CCOCC1`, the “hERG current change (%, negative = inhibition) at 10uM” value is 4.69%.

For the compound `COc1ccc(C(=O)NC(CC(C)C)C(=O)O)cc1OC` (stereo not drawn), the “hERG current change (%, negative = inhibition) at 10uM” value is on record as 7.48%.

As for `S=C(Cc1ccc(Cl)cc1)N1CCOCC1`, the “hERG current change (%, negative = inhibition) at 10uM” value is 11.1%.

As for `CN1C(CC(=O)Nc2ccc(Cl)cc2Cl)c2ccccc2CC1(C)C` (stereo not drawn), the “hERG current change (%, negative = inhibition) at 10uM” value is on record as -76.7%.

On to `Cn1cc(-c2ccccc2C(N)=O)c(=O)c2cc(Cl)ccc21`, for which the “hERG current change (%, negative = inhibition) at 10uM” value is listed as 11.2%.

`O=C(c1cc(COc2ccc(F)cc2Cl)on1)N1CCc2sccc2C1`: the “hERG current change (%, negative = inhibition) at 10uM” value was found to be 22.7%.

For `CC(=O)Nc1ccc(NC(=O)C(C)OC(=O)CNS(=O)(=O)/C=C/c2ccc(C)cc2)cc1` (stereo not drawn), the “hERG current change (%, negative = inhibition) at 10uM” value is reported as 18.9%.

Consider `CCC(C)Nc1nc(N)c([N+](=O)[O-])c(NCc2ccccc2)n1` (stereo not drawn), for which the “hERG current change (%, negative = inhibition) at 10uM” value was 0.654%.

For `Cc1cc(C(=O)CN2C(=O)C(=O)N(CC(C)C)C2=O)c(C)n1C1CC1`, the “hERG current change (%, negative = inhibition) at 10uM” value was -32.4%.

On to `CC(=O)c1cc(C#N)c(N2CC(C)OC(C)C2)nc1C` (stereo not drawn), for which the “hERG current change (%, negative = inhibition) at 10uM” value is listed as -6.5%.

`CN(Cc1ccccc1F)C(=O)CN1c2cccc3cccc(c23)S1(=O)=O`: the “hERG current change (%, negative = inhibition) at 10uM” value stood at 0.573%.

For the compound `CCCCOC(=O)CCn1c(=S)oc2ccccc21`, the “hERG current change (%, negative = inhibition) at 10uM” value is reported as -17.4%.

With `O=C(NCC(O)CO)c1ccc2[nH]c3ccccc3c2c1` (stereo not drawn), the “hERG current change (%, negative = inhibition) at 10uM” value came out at 10.4%.

`OCCNc1nc(Nc2ccccc2Cl)nc(N2CCCC2)n1`: the “hERG current change (%, negative = inhibition) at 10uM” value is on record as -13.3%.

On to `CC1=C(C(=O)OC(C)(C)C)C(c2cccs2)NC(=O)N1` (stereo not drawn), for which the “hERG current change (%, negative = inhibition) at 10uM” value was -0.0788%.

Regarding `CN(C)c1ccc(SC#N)cc1`, the “hERG current change (%, negative = inhibition) at 10uM” value turned out to be 9.32%.

Consider `CCn1c(SC)nnc1-c1sc2cc(Cl)ccc2c1Cl`, for which the “hERG current change (%, negative = inhibition) at 10uM” value is on record as -55.4%.

Turning to `CC(C)(C)NC(=O)CSc1nccn1Cc1ccccc1`, the “hERG current change (%, negative = inhibition) at 10uM” value was -5.59%.

`COc1ccc(NC(=O)c2ccc(OCc3c(C)noc3C)c(OC)c2)cn1`: the “hERG current change (%, negative = inhibition) at 10uM” value was -0.917%.

Take `O=C(Nc1ccc(S(=O)(=O)NCC2CCCO2)cc1)C1CC(=O)N(c2ccccc2)C1` (stereo not drawn): the “hERG current change (%, negative = inhibition) at 10uM” value stood at 3.16%.

On to `O=C(CSC1=NS(=O)(=O)c2cc(F)ccc2N1)NCc1ccccc1Cl`, for which the “hERG current change (%, negative = inhibition) at 10uM” value was -2.68%.

Consider `CC(OC(=O)CN1C(=O)NC(C)(C)C1=O)C(=O)c1ccccc1` (stereo not drawn), for which the “hERG current change (%, negative = inhibition) at 10uM” value is recorded as 6.12%.

As to `O=C(c1ccc2snnc2c1)N1CCOCC1`, the “hERG current change (%, negative = inhibition) at 10uM” value worked out at 18.6%.

In the case of `CCCC(=O)Nc1sc2c(c1C#N)CC(C)(C)NC2(C)C`, the “hERG current change (%, negative = inhibition) at 10uM” value was 5.32%.

With `O=C(Nc1ccc2oc(-c3ccc(Cl)c(Cl)c3)nc2c1)c1ncn[nH]1`, the “hERG current change (%, negative = inhibition) at 10uM” value is recorded as 1.48%.

Values taken from article PMC4336329 (PLoS ONE, 2015).
